Test results reported in PubChem BioAssay AID686978 (National Center for Advancing Translational Sciences (NCATS), 2013).
Out of some 420,000 compounds screened, about 64,000 (15%) were called active. The shares of active, inactive and inconclusive entries below differ from those in the screen. Calls come from the whole dose curve; as a rule, active = well fitted inhibition curve with a large enough effect; inconclusive = small, poorly fitted or top-dose-only effect; inactive = flat fitted curve, though single readings scatter. No potency is given beside an inconclusive call; the fits are too rough.

Assay: qHTS for Inhibitors of human tyrosyl-DNA phosphodiesterase 1 (TDP1): qHTS in cells in absence of CPT; note: nearly all actives have a fitted effect of over 55% in size
Details: DT40 Tdp1-/- hTDP1 cells, no CPT, ATP luminescence, 48 h; activity change, negative = growth inhibition: at 46.2 µM (top of the series)
Summary of the method: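 Cells were dispensed at 400 per well, compounds added by pin tool, plates incubated ≥48 hr at 37 °C, then CellTiter-Glo added for 30 min at room temperature before luminescence reading. Line: DT40 Tdp1-/- complemented with hTDP1; camptothecin omitted.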
% is set by controls: 0 for no effect and ±100 for the full control effect; potency is the fitted concentration of half-maximal effect; tags give direction and shape of the fitted curve.

Row | SMILES | Potency | activity change, negative = growth inhibition
1 | COc1ccc(Cl)cc1NC(=O)Cn1c(=O)oc2cc(S(=O)(=O)N3CCCCCC3)ccc21 | active: 16.4 µM | –
2 | Cc1csc2ncc(C(=O)NCCC(c3ccccc3)c3ccccc3)c(=O)n12 | inconclusive [inhibitor, partial curve, poor fit] | –
3 | CC1=C(C(N)=O)C(c2cccc(O)c2)n2ncnc2N1 (configuration not stated) | inactive | –
4 | O=C(C[C@H]1C(=O)N(Cc2cccnc2)C[C@@H]1Cc1ccccc1)Nc1ccccc1 | inconclusive [inhibitor, single point] | –
5 | Cc1ccc(C(=O)c2cn(Cc3ccccc3F)c3cc4c(cc3c2=O)OCCO4)cc1 | inconclusive [inhibitor, single point] | –
6 | O=C(CN1C(=O)NC2(CCCc3ccccc32)C1=O)c1ccc(F)c(F)c1 (configuration not stated) | inconclusive [inhibitor, single point] | –
7 | CC(C)(C)NC(=O)/C(=C/c1ccco1)c1ccccc1 | inactive | –
8 | O=C(Nc1ccc(C(=O)N2CCCCC2)cc1)C1=CSCCO1 | inconclusive [inhibitor, partial curve, poor fit] | –
9 | CC(=O)c1ccccc1OCC(O)CN1CCN(C(c2ccccc2)c2ccccc2)CC1 (configuration not stated) | inconclusive [inhibitor, single point] | –
10 | COc1ccccc1N1CCN(C(=O)c2cc(N3C(=O)C4C5CCC(C5)C4C3=O)ccc2Cl)CC1 (configuration not stated) | inconclusive [inhibitor, partial curve] | –
11 | O=C(C1CCN(Cc2ccc(F)cc2)CC1)N1CCN(C/C=C/c2ccccc2)CC1 | inconclusive [inhibitor, single point] | –
12 | O=C(Nc1ccc(C(=O)NCc2ccc(F)cc2)cc1)C1=CSCCO1 | inactive | –
13 | CN(C)CCNC(=O)c1ccc(Cn2c(SCc3ccc(F)cc3)nc3cccnc32)cc1 | inconclusive [inhibitor, single point] | –
14 | Cc1ccc(NC(=O)c2ccccc2[N+](=O)[O-])nc1 | inconclusive [inhibitor, single point] | –
15 | CCNc1nnc(SCC(=O)NC2CCCCCC2)s1 | inactive | –
16 | COc1cc(CNc2ccc3[nH]c(=O)[nH]c3c2)cc(Cl)c1OCC(=O)NC(C)(C)C | inconclusive [inhibitor, single point] | –
17 | COc1ccc(-n2c(COc3ccc(Cl)cc3Cl)n[nH]c2=S)cc1 | inconclusive [inhibitor, single point] | –
18 | Oc1ccc(/C=N/NC(=S)NC2CC3CCC2C3)cc1 (configuration not stated) | inconclusive [inhibitor, single point] | –
19 | CCOC(=O)CSc1nc(C(C)C)nc2sc(C)c(C)c12 | – | inconclusive: -31.1% [inhibitor]
20 | COc1ccc(S(=O)(=O)N2CCCCCC2)cc1C(=O)N(C)Cc1ccccc1F | inconclusive [inhibitor, single point] | –
21 | O=c1cnc2cnc(Nc3ccccc3)nc2n1Cc1cccs1 | inconclusive [inhibitor, single point] | –
22 | CCOC(=O)c1ccc(NCC(O)COc2ccccc2)cc1 (configuration not stated) | inconclusive [inhibitor, single point] | –
23 | COc1ccc(S(=O)(=O)N2CCC(N3CCN(Cc4ccccc4)C(=O)C3=O)CC2)cc1 | inactive | –
24 | CCn1c2ccccc2c2nnc(N3CCN(c4cccc(Cl)c4)CC3)nc21 | inconclusive [inhibitor, partial curve] | –

Row | SMILES | Potency | activity change, negative = growth inhibition
25 | Cc1ccc2cc(CN(C(=O)c3ccco3)c3cccc(C)c3C)c(=O)[nH]c2c1 | inconclusive [inhibitor, single point] | –
26 | Cc1sc2ncnc(NCCCO)c2c1C | inconclusive [inhibitor, single point] | –
27 | Cc1sc(NC(=O)C2C3C=CC(C3)C2C(=O)O)c(C(N)=O)c1-c1ccc(C(C)C)cc1 (configuration not stated) | inconclusive [inhibitor, single point] | –
28 | CN(Cc1ccc(F)cc1)C(=O)c1cccc(S(=O)(=O)N2CCN(c3ccccc3)CC2)c1 | active: 23.1 µM | –
29 | COc1cc(NC(=O)CN2C(=O)c3ccccc3Sc3ccc(C(=O)N4CCOCC4)cc32)cc(OC)c1OC | – | inconclusive: -1.25% [inhibitor]
30 | FC(F)(F)c1cc(N2CCOCC2)nc(-c2ccccc2)n1 | inconclusive [inhibitor, partial curve, poor fit] | –
31 | NS(=O)(=O)c1ccc(NC(=O)/C=C/c2ccco2)cc1 | inactive | –
32 | O=C(NNC(=O)c1ccc(-c2ccccc2)cc1)c1ccccc1 | inactive | –
33 | CCOC(=O)C1=NNC(C(=O)c2ccccc2)C1c1ccc(OC)cc1 (configuration not stated) | inconclusive [inhibitor, single point] | –
34 | COc1ccccc1-c1c(C#N)c(N)nc2c1CCC2 | inactive | –
35 | COc1ccccc1N1CCN(C(c2cc3cc(C)ccc3[nH]c2=O)c2nnnn2C2CCCC2)CC1 (configuration not stated) | inconclusive [inhibitor, partial curve] | –
36 | O=S(=O)(Nc1nc2ccccc2[nH]1)c1ccc(Cl)cc1 | inactive | –
37 | O=C(Nc1ccc(Cc2ccncc2)cc1)C1CCC(N2C(=O)C3CC=CCC3C2=O)CC1 (configuration not stated) | active: 15.8 µM | –
38 | CCN(CC(=O)Nc1ccc(C#N)cc1)CC(=O)Nc1ccc2c(c1)OCCO2 | inconclusive [inhibitor, single point] | –
39 | CC(=O)Nc1cnc(NC(=O)c2cccc(F)c2)cc1C | inactive | –
40 | Cc1ccn2c(NC3CCCCC3)c(-c3ccc(SC4CCCCC4)cc3)nc2c1 | active: 23.1 µM | –
41 | O=C(CSc1nnc(-c2ccc(O)cc2)n1Cc1ccco1)c1ccccc1 | inconclusive [inhibitor, single point] | –
42 | CN1CCN(c2ncc3nc(-c4ccc(Cl)cc4)c(=O)n(Cc4cccs4)c3n2)CC1 | inconclusive [inhibitor, single point] | –
43 | O=C(CSc1cc(Cl)ccc1Cl)Nc1ccc(N2CCOCC2)cc1 | inconclusive [inhibitor, single point] | –
44 | COCCCNC(=O)Cn1c(=O)n(-c2cccc(C)c2)c(=O)c2c1c1cc(C)ccc1n2C | inconclusive [inhibitor, partial curve, poor fit] | –
45 | O=[N+]([O-])C(=C1SCCS1)C(=C(Cl)Cl)N1CCCCC1 | inconclusive [inhibitor, single point] | –
46 | CSc1nn(CC(=O)Nc2ccccc2F)c(N)c1S(=O)(=O)c1ccccc1 | inactive | –
47 | Cc1cc(N2CCN(C)CC2)ccc1NC(=O)c1ccc(-c2ccc(Cl)cc2)o1 | inconclusive [inhibitor, single point] | –
48 | CC(C)(O)c1[nH]c2ccc(C(F)(F)F)cc2c1C(C)(C)O | inconclusive [inhibitor, single point] | –

Row | SMILES | Potency | activity change, negative = growth inhibition
49 | Cc1nc2c(C(=O)NCCC(C)C)c[nH]n2c(=O)c1Cc1ccccc1F | inconclusive [inhibitor, single point] | –
50 | CCCNC(=O)COc1coc(CN2CCN(c3ccc(F)cc3)CC2)cc1=O | inactive | –
51 | COc1ccc(CNC(=O)Cc2c(C)c3cc4c(C)coc4cc3oc2=O)cc1 | inactive | –
52 | O=S(=O)(Nc1ccc(-c2cn3c(n2)SCC3)cc1)c1cc(F)ccc1F | inconclusive [inhibitor, single point] | –
53 | COc1ccc(NC(=O)C2C(c3ccc4c(c3)OCO4)=Nc3ccccc3N2C(C)=O)cc1 (configuration not stated) | inconclusive [inhibitor, single point] | –
54 | CCOc1cc(N2CCOCC2)c(OCC)cc1NC(C)C(=O)N1CCN(CC)CC1 (configuration not stated) | inactive | –
55 | COc1ccc(-c2noc(CCCC(=O)Nc3cccc(Cl)c3C)n2)cc1 | inconclusive [inhibitor, single point] | –
56 | Fc1cccc(/C=N/Nc2ccc3ccccc3n2)c1 | inconclusive [inhibitor, single point] | –
57 | CC(=O)N[C@@H](Cc1c[nH]c2ccccc12)C(=O)NCCc1ccc(S(N)(=O)=O)cc1 | inactive | –
58 | CC(=O)Nc1ccc(N=Nc2ccc(O)cc2)cc1 | inconclusive [inhibitor, single point] | –
59 | Cc1cc(NS(=O)(=O)c2ccc(N)cc2)nc(C)n1 | inactive | –
60 | O=C(Nc1ccc2c(c1)OCO2)c1cc(C2CCCCN2S(=O)(=O)Cc2ccccc2)on1 (configuration not stated) | inactive | –
61 | C=CCn1c(C)csc1=Nc1ccccc1C | inactive | –
62 | CC(NC(=O)/C=C/c1ccc(Br)cc1)c1ccccc1 (configuration not stated) | inconclusive [inhibitor, partial curve, poor fit] | –
63 | COc1cc(C(=O)N/N=C/c2cn(Cc3ccccc3)c3ccccc23)ccc1O | inactive | –
64 | COc1cc2c(cc1OC)CN(Cc1cc(OC)c3c(c1)OCO3)CC2 | inconclusive [inhibitor, partial curve, poor fit] | –
65 | O=C(Nc1ccc(F)cc1)NC1CCCc2ccccc21 (configuration not stated) | inactive | –
66 | CC(C)(C)c1csc(NC(=O)Cc2cccs2)n1 | inactive | –
67 | Cn1c(NCCc2ccncc2)nc2cc(-c3ccccc3)sc2c1=O | inconclusive [inhibitor, single point] | –
68 | COc1ccc(NC(=O)CCCSc2ccccc2)cc1 | inactive | –
69 | CCOc1ccc(C2=NC(c3ccncc3)=Nc3ccc(C)cc3N2)cc1OCC | active: 18.4 µM | –
70 | O=C(NCC(=O)N1CCN(Cc2c(F)cccc2Cl)CC1)c1cccc(Cl)c1 | active: 16.4 µM | –
71 | COc1ccccc1-c1c(C)nn2c(-c3ccccc3)cc(-c3ccccc3)nc12 | inactive | –
72 | O=C(COC(=O)CCc1ccccc1)Nc1ccc(F)cc1Cl | inactive | –
